98 molecules from PubChem BioAssay AID1508623 (National Center for Advancing Translational Sciences (NCATS), 2021) can be followed below.

Screen size: about 48,000 compounds; about 450 (0.94%) were called active. Inconclusive results (about 19%) are left out. Calls come from the whole dose curve; as a rule, active = well fitted inhibition curve with a large enough effect; inconclusive = small, poorly fitted or top-dose-only effect; inactive = no such curve, though single readings can be large or run the other way. The list shows a part of the results.

A short description of the assay: Primary qHTS for Identification of Small Molecule Inhibitors of Huntingtin Promoter Activity. Note: nearly all actives have a fitted effect of over 50% in size. To be noted: HEK293 HTT promoter firefly luciferase reporter (activity 0% = vehicle and -100% = no light), 24 h; series mostly up to 57.5 µM; activity change, negative = inhibition: at the top concentration. The procedure, abridged: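 Firefly luciferase signal from promoter-reporter HEK293 cells was scaled between vehicle (0%) and zero RLU (-100%). Compounds were tested at final concentrations of up to 57.5 uM over 24 h at 37 degrees C. PTC124 at 50 uM final served as control inhibitor.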
(Quantitative high-throughput screening tests each substance at several concentrations.)
As for `CN(c1ccccc1)S(=O)(=O)c1nnc(NC(=O)COc2ccccc2)s1`, the “activity change, negative = inhibition” value was inactive: -15.2%. The same measure for `CCOC(=O)c1cc2c(=O)n3ccccc3nc2n(Cc2ccco2)c1=NC(=O)c1ccc(C)c(C)c1`: inactive: -13.3%. With `O=C(Nc1cc2c(cc1C(=O)c1cccc(Br)c1)OCCO2)c1ccccc1F`, the “activity change, negative = inhibition” value is inactive: -10.8%. The same measure for `CN(C(=O)Cn1cnc2onc(-c3ccc(F)cc3)c2c1=O)c1ccccc1Cl`: inactive: -13.1%; for `Cc1cc(C)cc(-n2c(C)cc(C(=O)C(=O)Nc3nnc(C)s3)c2C)c1`: inactive: -27%. Next, `O=C(NC1(C(F)(F)F)C(=O)Nc2c1c(=O)[nH]c(=O)n2-c1ccccc1)c1ccccc1` (stereo not drawn): inactive: -12.5%. The same measure for `CCOc1ccc(C(=O)NCc2nc3cccnc3n2Cc2cccc(OC)c2)cc1`: inactive: -0.932%; for `CCCN(CCC)C(=O)Cn1c(SCc2cccc(C(F)(F)F)c2)nc2cccnc21`: inactive: -24.4%. Regarding `N#Cc1ccccc1NC(=O)C(=O)NCCc1csc2nc(-c3cccc(F)c3)nn12`, the “activity change, negative = inhibition” value was inactive: -7.35%. Turning to `C=CCCCCCCCCC(=O)O`, the “activity change, negative = inhibition” value is inactive: 9.77%. `COc1ccc(OC)c(CNC(=O)CN(c2ccc(C)cc2)S(=O)(=O)N(C)C)c1`: the “activity change, negative = inhibition” value is inactive: -5.83%. Consider `Cc1cccc(NC(=O)N2CCN(C)c3ncccc32)c1C`, for which the “activity change, negative = inhibition” value is inactive: -12.2%. The same measure for `Cc1ccc2occ(CC(=O)N(Cc3ccccc3Cl)C3CCS(=O)(=O)C3)c2c1` (stereo not drawn): inactive: -27.2%; for `O=C(CSc1oc(-c2ccccc2)nc1S(=O)(=O)c1ccc(Cl)cc1)Nc1ccc(F)cc1`: inactive: -13.7%; for `Cc1ccc(Cn2cc(CCC(=O)NC3CCC(C)CC3)c3ccccc32)cc1` (stereo not drawn): inactive: -23.9%. The same measure for `CC1CCC(Nc2nc3c(-c4ccc(Cl)cc4)nnn3c3ccccc23)CC1` (stereo not drawn): inactive: -13.3%. Next, `CC(=O)c1ccc(NC(=O)CN2C(=O)CCc3ccccc32)cc1`: inactive: -12.1%. With `CC(=O)Nc1ccc(/C=C/c2nc(-c3ccccc3O)n(-c3ccccc3)n2)cc1`, the “activity change, negative = inhibition” value is inactive: -9.55%. Next, `COc1ccccc1CNS(=O)(=O)c1ccc2c(c1)NC(=O)C(C)C(=O)N2` (stereo not drawn): inactive: -18.3%. Next, `Cc1cccc(-c2nc(C)c(CCNC(=O)C(=O)Nc3cccc(Cl)c3C)s2)c1`: inactive: 12.9%; `O=C(Cn1cc(SCc2ccc(C(F)(F)F)cc2)c2ccccc21)N1CCOCC1`: inactive: 4.6%. The same measure for `Cc1ccc(-c2nc(-c3cc4c([nH]c3=O)CC(C)(C)CC4=O)sc2C)cc1`: inactive: -9.25%; for `CCCCSc1nc(-c2ccc(OC)cc2)ccc1C#N`: inactive: -28%; for `COC(=O)c1ccccc1NC(=O)Cn1c(CCC(=O)O)ccc1-c1cccs1`: inactive: -17.9%. As for `CCOc1ccc(N(C)C(=O)CS(=O)(=O)c2cccc3nsnc23)cc1`, the “activity change, negative = inhibition” value is inactive: -17.1%. Next, `COC(=O)CSc1ncc2c(n1)-c1ccccc1N(Cc1ccccc1C)S2(=O)=O`: inactive: -5.83%. Regarding `O=C1CCC(N2C(=O)c3ccccc3C2=O)C(=O)N1` (stereo not drawn), the activity change, negative = inhibition entry is “inactive”. As for `COc1ccc2nc3oc(C(=O)N4CCN(c5cc(C)ccc5C)CC4)cc3cc2c1`, the “activity change, negative = inhibition” value is inactive: 43.7%.

Take `COc1ccccc1N1CCN(C(=O)C(CCSC)NS(=O)(=O)c2ccc3c(c2)oc(=O)n3C)CC1` (stereo not drawn): the “activity change, negative = inhibition” value is inactive: -16%. With `CC(C)Oc1ccc(CNC(=O)CCCN2C(=O)CCn3nc(-c4cccn4C)cc32)cc1`, the “activity change, negative = inhibition” value was inactive: -3.39%. The same measure for `O=C(c1ccco1)n1nc(-c2ccccc2)nc1NCc1ccc(Cl)cc1`: inactive: 0.154%. As to `CCc1ccc(NCc2cc3ccc(OC)cc3n(CC(=O)Nc3ccc(F)cc3F)c2=O)cc1`, the “activity change, negative = inhibition” value was inactive: -28.6%.

For the molecule `CCC(=O)N1c2ccccc2CC1C(=O)N1CCN(c2cccc(Cl)c2)CC1` (stereo not drawn), the “activity change, negative = inhibition” value is inactive: -8.1%. Next, `COc1cccc(CNCCSc2nnnn2C)c1OCc1ccccc1Cl`: inactive: -22%; `COc1cccc(CNS(=O)(=O)c2ccc3c(c2)CCN3C(=O)C2CCC2)c1`: inactive: -22%; `O=C(Nc1ccc(F)cc1)N1CCN(c2ccccc2F)CC1`: inactive: 20.3%. Regarding `Cc1cc(=O)[nH]c2nnc(SCc3ccc(F)cc3)n12`, the “activity change, negative = inhibition” value was inactive: -14.2%. On to `Cc1ccc(C)c(S(=O)(=O)c2nnn3c2nc(Nc2ccc(C)c(C)c2)c2sccc23)c1`, for which the “activity change, negative = inhibition” value is inactive: -3.25%. Next, `CCOC(=O)c1ccc(-n2c(CCC(=O)O)ccc2-c2ccc(Br)cc2)cc1`: inactive: -7.24%. Next, `COc1ccc(Cn2c(SCC(=O)NCc3ccc(Cl)cc3)nc3ccsc3c2=O)cc1`: inactive: -0.214%; `CC(C)(C)CC(C)(C)c1ccc(O)c(-n2nc3ccccc3n2)c1`: inactive: 2.13%; `O=C(NCc1cccs1)c1ccc(Cn2c(SCc3ccccc3)nc3cccnc32)cc1`: inactive: -30.3%. The same measure for `Cc1cc(Cl)ccc1OCC(=O)Nc1c(Cl)ccc2nsnc12`: inactive: -32%.

Consider `COc1ccccc1-c1nc(SCC(=O)NCc2ccc(C)cc2)c2c(=O)n(C)c(=O)n(C)c2n1`, for which the “activity change, negative = inhibition” value is inactive: 27.9%. Turning to `O=C(COc1ccccc1F)Nc1ccc2oc(-c3cccc(Cl)c3)nc2c1`, the “activity change, negative = inhibition” value was inactive: 21.2%. Next, `Cc1ccc(-c2ccc(=O)n(CC(=O)Nc3ccc(C)cc3Cl)n2)cc1`: inactive: -17.9%; `COc1cccc(/C=C/c2nc(C#N)c(NCCc3ccccc3)o2)c1`: inactive: 18.6%; `Clc1cccc(N2CCN(c3nc4ccccc4n4nnnc34)CC2)c1`: inactive: -8.04%. The same measure for `COc1ccc(C2C=C(c3ccccc3)Nc3nc(NC(=O)c4cccc([N+](=O)[O-])c4)nn32)cc1` (stereo not drawn): inactive: -14.9%. For `O=C1[C@@H]2[C@H]3CC[C@H](C3)[C@@H]2C(=O)N1CCCCN1CCN(c2ncccn2)CC1`, the “activity change, negative = inhibition” value was inactive: -2.58%. The same measure for `Cc1ccc(OCC(=O)Nc2cccc(-c3nc4ccccc4s3)c2)cc1`: inactive: 84.2%.

Consider `Cc1c(C(=O)NCc2ccccc2)sc2nc3n(c(=O)c12)CCCCC3`, for which the “activity change, negative = inhibition” value was inactive: 34.5%.

For the molecule `COc1cccc(CNC(=O)c2sc3nc(C)cc(C)c3c2-n2cccc2)c1OC`, the “activity change, negative = inhibition” value is inactive: -16.7%. The same measure for `CCOC(=O)c1ccc(NC(=O)C2CCCN(c3ncnc4onc(-c5ccc(F)cc5)c34)C2)cc1` (stereo not drawn): inactive: -24.7%. The same measure for `CCOC(=O)COc1ccc(CC)cc1C(=O)c1ccn2nc(-c3ccccc3)cc2n1`: inactive: -7.32%; for `COC(=O)c1sccc1S(=O)(=O)N1CCN(c2cc(Cl)ccc2C)CC1`: inactive: -19.4%. Next, `COC(=O)C(Cc1c[nH]c2ccccc12)NC(=O)COc1cccc(C)c1` (stereo not drawn): inactive: -0.167%. `Cc1ccc(-c2n[nH]c3c2C(c2ccc(C(C)(C)C)cc2)NC3=O)cc1` (stereo not drawn): the “activity change, negative = inhibition” value is inactive: -15.4%. The same measure for `Cc1nn(S(=O)(=O)c2ccc(C(C)(C)C)cc2)c(C)c1S(=O)(=O)N1CCCCCC1`: inactive: -3.54%; for `COCCNC(=O)CCn1c(=O)c2cc(OC)c(OC)cc2n(CC(=O)Nc2ccc(Cl)cc2F)c1=O`: inactive: -26.1%. In the case of `Cc1ccc(NC(=O)c2oc3ccc(S(=O)(=O)N4CCC5(CC4)OCCO5)cc3c2C)cc1C`, the “activity change, negative = inhibition” value is inactive: -9.25%. Next, `CCC1CN(C(=O)N2CCC(C(=O)NCc3ccc(N(C)C)cc3)CC2)c2ccccc2O1` (stereo not drawn): inactive: -28.1%; `CCCCC(=O)NCc1nc2cccnc2n1Cc1ccc(OC)cc1`: inactive: -2.82%. The same measure for `COc1cccc(Nc2ccc3cc(S(=O)(=O)N4CCC(C)CC4)ccc3n2)c1`: inactive: -12.2%; for `CCCOc1cccc(C(=O)Nc2cccc(-c3nc4ncccc4o3)c2C)c1`: inactive: -4.92%.

`CCn1cc2nc(SCC(=O)Nc3ccc(OC)c(OC)c3)n(Cc3ccc(Cl)cc3)c(=O)c2n1`: the “activity change, negative = inhibition” value is inactive: -30.3%. Next, `CC(=O)c1cccc(NC(=O)C2CCN(C(=O)c3cnn(-c4ccccc4)c3-n3cccc3)CC2)c1`: inactive: -29.8%; `Cc1c(C(=O)NCc2ccccc2Cl)sc2nc3n(c(=O)c12)CCCCC3`: inactive: 9.44%. Next, `COc1ccc(-c2cc(-c3ccc(F)cc3)nc3c2COc2ccc(F)cc2-3)cc1`: inactive: -6.41%; `COc1ccc(-c2oc3ncn4nc(-c5ccccc5O)nc4c3c2-c2ccc(OC)cc2)cc1`: inactive: -1.92%; `O=C(NCc1ccccc1)C1CCCN(S(=O)(=O)c2cccc3nsnc23)C1` (stereo not drawn): inactive: -19.8%. The same measure for `CCOc1ccc(NC(=O)CN2C(=O)CC(C)Sc3ccccc32)cc1` (stereo not drawn): inactive: -10.9%; for `Cc1ccc2c(c1)C(Cc1ccccc1F)C(=O)N2` (stereo not drawn): inactive: -18.6%; for `COc1ccc(CCNC(=O)C(CC(C)C)N2Cc3ccccc3C2=O)c(OC)c1OC` (stereo not drawn): inactive: -22.8%. As to `CCn1cc(CCC(=O)NCc2ccc(C)cc2)c2ccccc21`, the “activity change, negative = inhibition” value is inactive: -15.2%. The same measure for `CC(C)Oc1ccccc1C1C=C(C(=O)O)Nc2ncnn21` (stereo not drawn): inactive: -20.8%; for `COc1ccc(CCn2c3c(c(=O)[nH]c2=O)C(NC(=O)c2ccccc2F)(C(F)(F)F)C(=O)N3)cc1OC` (stereo not drawn): inactive: -10.4%; for `COc1cc2c(=O)n(Cc3ccccc3Cl)c(=O)n(CC(=O)Nc3ccc(C)c(C)c3)c2cc1OC`: inactive: -0.307%. Take `Cc1cccc(C(=O)Nc2cc(-c3nc4cccnc4s3)ccc2C)c1`: the “activity change, negative = inhibition” value is inactive: 1.05%.

As to `COc1ccc(C)cc1NC(=O)C1CCN(S(=O)(=O)c2ccc3[nH]c(=O)oc3c2)CC1`, the “activity change, negative = inhibition” value is inactive: -12.7%. `COc1ccc(N2CCN(C(=O)c3cn(C)c4ccc(S(=O)(=O)N(C)C5CCCCC5)cc4c3=O)CC2)cc1`: the “activity change, negative = inhibition” value was inactive: -6.47%. Next, `COc1ccc(CNC(=O)C2CCN(S(=O)(=O)c3c(C)noc3/C=C/c3cccs3)CC2)cc1`: inactive: -18.7%; `Cc1ccccc1NC(=O)CCOc1ccccc1`: inactive: 58.9%. The same measure for `Cn1cc(-c2cc3n(n2)CCC(=O)N3CCCC(=O)Nc2ccccc2Cl)c2ccccc21`: inactive: -0.146%; for `Cc1ccc(NC(=O)c2cc(CN3CCOCC3)on2)cc1Cl`: inactive: 27%; for `Cc1ccccc1S(=O)(=O)Cc1ccc(C(=O)NCc2ccccc2Cl)o1`: inactive: -24.5%.

Take `Nc1nn(-c2ccccc2)nc1C(=O)OCc1ccccc1Br`: the “activity change, negative = inhibition” value was inactive: 4.52%. The same measure for `COc1ccccc1N1CCN(CCCNc2cc(=O)n(C)c(=O)n2C)CC1`: inactive: 4.69%. The same measure for `O=C(c1cccs1)c1cn(CCOc2ccc(F)cc2)c2ccccc12`: inactive: -26.8%; for `CCOC(=O)c1c(C)[nH]c(C)c1S(=O)(=O)NCC(=O)Nc1ccc(CC)cc1`: inactive: -9.57%. For the molecule `O=C(Cn1cnc2onc(-c3ccc(F)cc3)c2c1=O)N1CCN(c2ccccc2F)CC1`, the “activity change, negative = inhibition” value is inactive: -22.5%. The same measure for `CCOC(=O)c1noc2ncn(CC(=O)Nc3cc(Cl)ccc3OC)c(=O)c12`: inactive: -3.93%; for `O=C(O)Cc1sc(Nc2ccc(C(=O)O)cc2)nc1-c1ccccc1`: inactive: 47.8%. Regarding `CCOc1ccccc1CNC(=O)CCCN1C(=O)COc2ccc(C)cc21`, the “activity change, negative = inhibition” value is inactive: -18%.

Take `COc1ccc(-c2cn(-c3ccc(C)cc3)c(S(=O)(=O)CC(=O)Nc3ccccc3)n2)cc1`: the “activity change, negative = inhibition” value is inactive: 9.47%.

Regarding `Cc1ccc(CNC(=O)CN(C)S(=O)(=O)c2ccc(Br)s2)cc1`, the “activity change, negative = inhibition” value was inactive: 1.17%. Next, `Cc1oc2ncn(CC(C)C)c(=O)c2c1C(=O)Nc1cccc(C(F)(F)F)c1`: inactive: -1.6%; `O=C(Nc1ccc(Cl)c(Cl)c1)c1cc(S(=O)(=O)N2CCN(c3cccc(Cl)c3)CC2)ccc1F`: inactive: -10.1%.
